Self-cleavage data for 56 variants are collected here from the RNAGym collection of RNA variant scans (doi:10.7554/elife.90254).

The chains are these.
B1: LINE1-mini (parent)
chain: GGCAGAGCUCAACACAGCGUGGCAAAGUGGCUGUGGCUAGACUGCC

Read counts are not given, so values of variants with three or more changes are uncertain.

Variants of B1 are the subject of the data set. The experiment in a line: self-cleavage, relative activity (ratio to wild type); higher = more cleavage; in vitro, sequencing; the parent is a self-cleaving ribozyme.
Turning to GGCAGCGCUAAACACAGCGUGGCGAAGUGGCUGUGGAGAGACUGCC, the self-cleavage is 0.
For the variant GGCAGCGCUCAACACAGCGUGGCUAAGUGGCUGUGGCUAGAAUGCC, the self-cleavage amounted to 0.08.
The figure for GGCAGCGCUCAAGACAGCGUGGCAAAGUGGCUGUGGCUAGACUGAC is 0.04; for GGCAGCGCUCCACACAGUGUGGCAAAGUGGAUGUGGCUAAGUUGCC it is 0; for GGCAUAGCCCAACACAGCGUGGCAAAGUGGCUGUGGCUAGACUGUC it is 0.07.
Regarding GGCAGCGCUAAACACAGCGUGGCAAAUUGGCUGUGACUAGACUGCC, the self-cleavage is 0.02.
As for GGCAGCGCUCAAUACAGCGUGGCGAAGUGGCUGUGGCUAGACCGCC, the self-cleavage stood at 0.02.
As to GGCAGCGCUCACCAGAGCGUGGCAAAGUGGCUGUGGCAAGACCGCC, the self-cleavage stood at 0.01.
With GGCAUAGCUCAACACAGCGUGGCAAAGUGGCUGGGGCAAGACUGCC, the self-cleavage is 0.02.
Take GGCAUAGCACAACACAGGGUGGCAAAGUGGCUGUGGCUAGACUGCC: the self-cleavage stood at 0.08.
On to GGCAGCGCUAAACACAGCGUGGCAAAGUGGCUGUGUCUACACUGCC, for which the self-cleavage came out at 0.01.
With GGCAGCGCUCAACUUAGCGUGGCAAAGUGGCUGUGGCUAGACUGCC, the self-cleavage turned out to be 0.12.
For the variant GGCAGCGAUCAACACAGCGUGGCAAAGUGGCUGUGGCUAGACUGCG, the self-cleavage came to 0.24.
The figure for GGCAGCGAUCAACACAGCGUGGCACAGUGGCUGUGGCUAGACUGCC is 0.66.
Take GGCAGCGCUCAACCCAGCGUGGCAAAUUGGCUGUGGCUAGACUGCC: the self-cleavage came out at 0.03.
As to GGCAGCGCUUAACACAGCGUGGCAAAGUGGCUGUGGCUAGAGUGCC, the self-cleavage is 0.02.
GGCAUAGCGCAACACAGCGUGGCAAAGUGGCAGUGGCUAGACUGCC: the self-cleavage turned out to be 0.04.
The figure for GGCAGCGCUAAACUCAGCGUGGCAAAGUGGCUGGAGCUCGAUUGCC is 0.02; for GGCAGCGCUCAACAGAGCGUGUCAAAGUGGCUGUGGAUACACUGCC it is 0.
GGCAUAGCUCAACACAGCGUGGCAAAGUGGCUCUGGCUAGAAUGCC: the self-cleavage turned out to be 0.07.
Turning to GGCAUAGCUCAACACAGCGUGGCAAAGUGGCUAUGGCUAGACUGAC, the self-cleavage was 0.04.
The figure for GGCAUAGCACAACACAGCGUGGCAAAGUUGCUGUGGCUAGACUGCC is 0.05.
Regarding GGCAGCGCUCAACACAGGGUGGCAAACUGGCUGUGGUUUGACUGCC, the self-cleavage was 0.02.
As for GGCAGCGCUCAGCACAGCGUGGCAAAGUGGUUGUGGCUAGAUUGCC, the figure is 0.04; as for GGCAGCGCUAAACACAGCGUUGCAAAGUGGCUGUGGCUAGACUGCC, 0.04; as for GGCAGCGCUAAACAUAGCGUGGCAAAGUGGCUGUGGCUAGACUGCC, 0.06.
As for GGCAGCGCUCAAGACAGCGUGGCAAAGUCGCUGUAGCUAGACUGCC, the self-cleavage was 0.05.
The figure for GGCAGCGCUCAAUACAGCGUGGCAAAUUGGCUGUGGCUAGACUGCC is 0.09.
In the case of GGCAGCGCUAAACACAGCGUUGCAAAGUGGCUGUGACUAGACUGCC, the self-cleavage worked out at 0.03.
Take GGCAGCGCUCAAUGCAGCGUGCCAAAGAGUCUGUGGCUCGAAUGCC: the self-cleavage amounted to 0.01.
As to GGCAGCGCUCAACAAAGUGUGGCAGAGUGGCUGUGGCUAGACUGCC, the self-cleavage came to 0.08.
For GGCAUAGCUCAACACAGCGAGGCGAAGUGGCUGUGGCUAGACUGCC, the self-cleavage came to 0.04.
As for GGCAGCGCUCGACACAGCGUGGCAAAUUGGCUGGGGCUAGACUGCC, the self-cleavage came to 0.03.
For the variant GGCAUAGCUCAACACAGCGUGGCAAAGUGGCUGUGGCUAGACGGAC, the self-cleavage is 0.07.
The figure for GGCAUAGCUCAACACAGCGCGGCAAUGUGGCUGUGGCUAGACCGCG is 0.03; for GGCAUAGCGCAGCACAGCGUGGCAAAGUUCCAGUAGCUAGACUGCC it is 0.02.
In the case of GGCAUAGCACAACACAGCGUGGCAAAGGGGCUGUGGCUAGACUGCC, the self-cleavage was determined as 0.09.
Consider GGCAGCGCUCAACACCGCGUGGCAAAGUGGAUGAGGCUAGACUGCC, for which the self-cleavage amounted to 0.03.
Regarding GGCAUAGCGCAAUUCAGGGUCGCCAAGUGGCGGUGGCUACACUGCC, the self-cleavage was found to be 0.04.
On to GGCAGCGCUCAACAAGGCGUGGCAAAGUGGCUGUGGCUAGACUGCC, for which the self-cleavage is 0.04.
Regarding GGCAGCGAUCAACACAGCGUGGCAAAGUCGCUGUGGCUAGACUGCC, the self-cleavage is 0.07.
For GGCAGCGCUCAACACGGCGUGGCAAAGUGGCUGUGGCGAGACUGCC, the self-cleavage came out at 0.01.
GGCAGCGCUCAACACCGCGUGGUCAAGUGGCUGUGGCUAGACUGCC: the self-cleavage was 0.01.
For GGCAGCGCUCUACACAGCGUGGCAAAGUGGCUGUGGCUAGACUGCU, the self-cleavage is 1.
For GGCAUAGCUCAACACAGCGAAGCAAAGUGGCUGUGGCUAGACUGCC, the self-cleavage is 0.06.
In the case of GGCAGCGCUCGAUACAGCGUGGCCACGUGGCUGUGGCGAGACUGUC, the self-cleavage worked out at 0.
In the case of GGCAGCGCUCAACAUAGCGUGGCAAACUGGUUGUGGCUAGAUUGCC, the self-cleavage was found to be 0.1.
GGCAGCGCUCGACACAGCGAGGCAAAGUGGCUGUGGCUAGACUGCC: the self-cleavage was 0.01.
As for GGCAGCGCUAAACACAGCGUGGCAAAGUGGCUGUGUCUAGCCUGCC, the figure is 0.06; as for GGCAUAGCACAAUACAGCGUGGCAAAGUGGCUGUGGCUAGACUGCC, 0.11; as for GGCAGCGUUCAUCACAGCGUGGUAAAGUGGCUGUGGCUAGAGUGAC, 0.41.
As for GGCAGCGCUCAAAACAGCGUGGCAACGUGGCUGUGGCUAGACUGCC, the self-cleavage was 0.05.
As to GGCAGCGCUUAACACAGCGUGGCAAAGGGGCUGUGGCUAGACUGCC, the self-cleavage amounted to 0.05.
Consider GGCAGCGCUAAACACAGCGUGGCAAAGUGGCUGUGGCUAGACUGAC, for which the self-cleavage is 0.01.
GGCAGCGCUCAACACAGCGUGGCAAUCUGGCUGUGGCUAGACUGGC: the self-cleavage worked out at 0.05.
Consider GGCAUAGCUCAACACAGCGUGGCAAAGGGCCUGUGGCUAUACUGCC, for which the self-cleavage was found to be 0.09.
